About 540 (0.36%) of roughly 150,000 compounds showed an effect of 50% or more. This is one part of the list.
test system: Plasmodium falciparum; experiment: Primary screen in NF54 nanoGlo assay, in single point, at 2uM, 72h; a lower Z score goes with more inhibition; assay type: functional, Erythrocyte; details: timepoint 72 hour

SMILES | % Inhibition [%] | Z score
O=S1(=O)CCN(C[C@H](O)c2ccc(C(F)(F)F)cc2)CC1 | -6 | 1.21
O=C(N[C@@H]1[C@@H]2CCO[C@@H]2[C@H]1N1CCCC1)c1ccn(C(F)F)n1 | 4 | -0.78
COc1cccc([C@H]2C[C@H](N(C)C(=O)CCCC(F)(F)F)C2)c1 | 5 | -0.72
CN1CCN(C(=O)[C@@]2(C)CC2(Cl)Cl)CC1 | -15 | 1.33
Cc1cncc(NC(=O)[C@H]2C[C@@H]2C(F)F)c1 | -15 | 1.83
CCc1cc(CN(C)CC(=O)N[C@@H](C)c2ccc(C)cc2)on1 | -7 | 1.34
COc1ccccc1CN1C(=O)c2c3c(nn2C[C@@]1(C)C(=O)NCc1ccc(C)cc1)CCCC3 | -6 | 0.63
CC1(NS(=O)(=O)Cc2ccccc2)CCOC1C1CC1 (stereo not drawn) | -10 | 1.2
COc1ccc(-c2ncccc2C(=O)N2CCCC2)cc1C | -3 | 0.45
O=S(=O)(Nc1ccncc1)c1ccc(Cl)c2ncccc12 | -3 | 0.56
CCCOCC(=O)NCc1cccc(C(=O)N(C)C)c1 | 4 | -0.87
Cc1nnc(-c2ccccc2-c2ccc(C(=O)O)s2)o1 | -2 | 0.33
CCc1ncc(C(=O)N2CCCCC2)c(-c2ccc(OC)cc2)n1 | -13 | 1.46
O=C(O)C1(Oc2ccc3ncccc3c2)CCN(CC2CCCCC2)CC1 | 0 | -0.01
N#Cc1ccc(C=Cc2coc(-c3ccccc3)n2)nc1 | 0 | -0.05
CC(=O)N1CCN(c2nc(N3CCOCC3)nc(-n3ccnc3)n2)CC1 | 4 | -0.79
Cc1n[nH]c(=O)nc1NC1CCCCCC1 | -9 | 1.27
CCN([C@@H](C)CS(C)(=O)=O)S(=O)(=O)c1cccnc1 | -2 | 0.32
c1cncc(CN[C@H]2CCCc3cn(C4CCCC4)nc32)c1 | -4 | 0.79
Cc1cc(CNc2ccn(CCO)n2)c2c(n1)CCCC2 | -11 | 1.14
COc1cc(CN2CC[C@H](NC(=O)c3ccc4[nH]c(=O)[nH]c4n3)C2)cc(OC)c1 | -9 | 1.31

SMILES | % Inhibition [%] | Z score
Cc1ccc(Cc2ccccn2)cc1NC(=O)N1CCC[C@@H]1CCO | -4 | 0.58
C#CCOC(=O)c1cn(CC(=O)N2CCCC2)nn1 | -5 | 0.64
Cc1nc(CCNC(=O)NC2CC2)cs1 | -4 | 0.67
CC(C)(Cc1ccccc1)C(=O)N1CCC2(CC1)C[C@H](O)CNC2=O | -5 | 0.68
Cc1ccccc1[C@@H](O)C1CCN(C(=O)Cc2cnn(C)c2C)CC1 | 4 | -0.48
COCc1c(C(=O)NC2CCCCCC2)c(=O)cc(C)n1CCc1ccccc1Cl | -4 | 0.44
CCc1cnc(CN2CCC[C@H]2c2noc(CC)n2)o1 | -10 | 1.41
CN(Cc1ccoc1)c1nc(C2CC2)nc2c1CCNCC2 | 11 | -1.49
COCC1(c2nc(C)nn2-c2ccc(F)cc2)CCC1 | 3 | -0.55
CC(C)(C#N)C(=O)NCc1ccc(OC(F)F)cc1OC(F)F | -6 | 0.57
COc1ccc(OC)c(-c2csc(NC(=O)[C@H]3CCCN(C(=O)c4ccoc4)C3)n2)c1 | 6 | -0.79
CNC(=O)[C@@]1(C)CCN(S(=O)(=O)c2cccc3c2OC(F)(F)O3)C1 | -9 | 1.73
Cc1csc(CNC(=O)c2cccc(-c3cc(N4CCCC4)cnn3)c2)n1 | 4 | -0.67
Cc1cccc(N2C(=O)C3CN=NC3(C)C2=O)c1 (stereo not drawn) | -11 | 1.65
Cc1ccc(C)c(NC(=O)[C@H]2CC(=O)N(CCc3c[nH]c4ccc(F)cc34)C2)c1 | 1 | -0.26
Cc1cnc(NC(=O)CNC(=O)C(C)(C)C)s1 | -2 | 0.2
COC[C@H]1[C@@H](NC(=O)c2ccc(N(C)C)cc2)[C@H]2CCO[C@H]21 | -15 | 2.99
COc1ccc(C(=O)N2CCCCCNC(=O)[C@@H]3CCC[C@@H]32)cc1F | -18 | 2.37
C[C@]1(NS(=O)(=O)c2ccc(Br)cc2F)CCOC1 | -3 | 0.56
Cc1nc(C)c(C(=O)N[C@@H](C)CC(=O)c2ccc(F)cc2)o1 | 6 | -0.74
CC[C@@H]1Oc2ccc(S(=O)(=O)N3CCN(C(=O)c4ccc(C)c(C)c4)CC3)cc2NC1=O | -1 | 0.12

SMILES | % Inhibition [%] | Z score
CN1CCCN(S(=O)(=O)c2cccnc2)c2ccc(F)cc21 | -12 | 2.2
COC(=O)c1ccc(C(=O)N2CCC[C@H](Oc3ccncc3)C2)cc1 | 15 | -2.11
Cc1nc(CCC(=O)Nc2ccc(NC(=O)NC(C)C)cc2)cs1 | -12 | 1.51
COC(CN(C)Cc1cccc(F)c1)OC | 4 | -0.57
O=C(Nc1ccc2c(c1)OCCO2)C1CN(S(=O)(=O)C2CC2)C1 | -12 | 1.79
CC[C@@H](COC)NC(=O)Nc1snc(C)c1Cl | -5 | 0.79
Cc1ccc(CN(C)C(=O)C2CC2c2ccc3c(c2)OCCO3)o1 (stereo not drawn) | -10 | 1.41
COc1ccccc1[C@H]1NC(=O)c2[nH]nc(C)c21 | -3 | 0.39
O=C(CN1CCCc2nc(-c3ccncc3)ncc2C1=O)NCc1ccccn1 | 1 | -0.14
Cc1ccc(-c2noc(CCNC(=O)c3ccccc3)n2)cc1 | 13 | -1.55
Cc1ccc(C)c(-n2nc(C)nc2CCCn2cncn2)c1 | -16 | 2.17
Cn1cc(C2=CCCN(S(=O)(=O)c3ccc4c(c3)CCO4)C2)cn1 | -16 | 2.09
Cc1ccc(S(=O)(=O)N2CC3(CCC3(F)F)C2)c(F)c1 | -11 | 1.37
CC(C)(C)c1cnc(CNc2cccc3c2OCCO3)o1 | -16 | 2.53
COC[C@H]1CCCN1[C@@H]1[C@H](O)[C@H](CO)O[C@@H]1CNC(=O)c1ccc(F)c(Cl)c1 | 9 | -1.04
CN(Cc1ccc2c(c1)OCO2)C(=O)c1cccnc1N(C)C | -5 | 0.85
COc1cc(C)nc(N2CC(OC)(c3ccnn3C)C2)n1 | 6 | -1.1
Cn1nccc1CN(CCNC(=O)OC(C)(C)C)C[C@H](O)CO | -9 | 1.17
Cc1cccc(NC(=O)N[C@@H](C)c2nnc(C(F)(F)F)[nH]2)n1 | -3 | 0.47
O=C(NCc1csc(=O)[nH]1)c1ccc2cc[nH]c2n1 | -3 | 0.65
CC(C)c1nccc(C(=O)NCc2nnc(N)s2)n1 | 5 | -0.42

SMILES | % Inhibition [%] | Z score
C[C@@H](C(=O)NCc1ccc2c(c1)OCO2)N1CCn2ccnc2C1 | -3 | 0.63
COc1cc([C@H](C)NC2(C(C)C)CC2)ccc1S(C)(=O)=O | 18 | -2.26
CCCN1CCC(N[C@H]2C[C@@H](C(=O)NCCc3ccc4c(c3)OCO4)N(Cc3cccc(Cl)c3)C2)CC1 | 2 | -0.32
CO[C@@]12CC[C@@H](O)C[C@@H]1N(C(=O)c1cn(C)c3ccc(C)cc3c1=O)CC2 | -10 | 1.84
CC[C@H]1CCCCN1C(=O)Cn1c(=O)n(CC2CCC(C(=O)NC3CCCC3)CC2)c(=O)c2ccccc21 (stereo partly drawn) | -16 | 2.53
Cc1nc(CCOC(=O)C[C@@H](CN)CC(C)C)cs1 | -4 | 0.76
N#Cc1ccc(N2CCCC(N3CCOC(c4cccc(O)c4)C3)C2=O)cc1 (stereo not drawn) | -2 | 0.38
Cc1ccc(C(=O)NCC2CCN(C(=O)c3[nH]cnc3C)CC2)cn1 | -10 | 1.41
COc1ccc(C[C@H](C)Nc2ccc3c(c2)CCC(=O)N3CC2CC2)cc1OC | -8 | 0.98
CC(=O)N1CCC(CN2CCn3cc(C(=O)NCCc4cccnc4)nc3[C@H]2c2ccccc2)CC1 | -7 | 0.98
O=C(O)c1cnc(C=Cc2cnc(C3CCC3)s2)s1 | -5 | 0.5
COCC(=O)NCCCn1c(-c2ccc(C)cc2)nc2cccnc21 | -1 | 0.13
N#Cc1cccc(Oc2cncc(C(N)=O)c2)n1 | -13 | 1.89
CCOC(=O)CCC(=O)Nc1ccc(N2CCC(C(=O)OCC)CC2)c(S(=O)(=O)N[C@H]2CCCc3ccccc32)c1 | 9 | -1.22
CCc1ccccc1-c1noc(C2(C#N)CCCC2)n1 | -11 | 1.39
CN(C)C(=O)/C(=C/c1cccc(Oc2ccccc2)c1)NC(=O)c1ccccc1 | -11 | 1.42
Cc1c(C(=O)O[C@@H](C)c2cscn2)cnn1C(C)C | -1 | 0.23
CN1CCC=C(CN(Cc2ccc3c(c2)OCO3)C(=O)N2CCCCC2)C1 | -3 | 0.46
Cc1nc(C)c(C(=O)N(C2CC2)[C@@H](C)c2cccc(C(F)(F)F)c2)s1 | 0 | 0.01
CN(C(=O)[C@@H]1CCCCC(=O)N1)c1cnn(C)c1 | -18 | 2.07
CC(C)CCC(=O)N1CC[S@+]([O-])C(C)(C)C1 | -8 | 1.08
